# Test results taken from the supplement of paper PMC10126150.
# Values marked as one replicate rest on one cluster of the flow cell; about a third of the high ones do not repeat.
# Test system: ATP
# Test: switch fluorescence ratio, 500 uM ATP over buffer (Cy3 cluster intensity, sum of 5 cycles each) (fold (ratio)); higher = stronger signal-on switching upon ATP binding; sequences stand for … in TCGTCGGCAGCGTCAGATGTGTATAAGAGACAGTTTTTTTTTTTTTTTTTTTTTTTTT…TC
# Settings: aptamer strand: ATP DNA aptamer (quencher-CACCTGGGGGAGTATTGCGGAGGAAGG + anchor), 100 nM annealed; ATP concentration: 500 uM; one replicate
# In short: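 Cy3-labelled switching-strand clusters on a modified Illumina MiSeq flow-cell were annealed to 100 nM quencher-labelled ATP aptamer and imaged first in selection buffer, then after 15 min with 500 uM ATP at 22 °C. NaOH stripping and re-annealing separated each of five buffer/ATP cycles, and clusters outside 100-1000 RFU were excluded. The fluorescence ratio sums target-cycle Cy3 intensity over buffer-cycle Cy3 intensity per cluster and averages it per switch-domain sequence.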
# 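Further: ATP exposure 15 min at 22 °C before imaging.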
row,Sequence,switch fluorescence ratio
1,ACGCAGTGCC,1.11
2,AATAAGTCCA,1.02
3,GTTCACTTTA,1.04
4,TGGCGATATG,0.992
5,ATTCTCCCGG,1.37
6,AATTGAATGC,1.01
7,ACGGGAACGT,1
8,CTCGACTGCA,1.35
9,CTTACATACA,1.38
10,CGTGTGATGA,1.07
11,TTATATCCA,1.03
12,ATTTATCTT,1.02
13,TGCTGTAAGT,1
14,ACGACACT,1.85
15,ACTATATTCT,1.02
16,TTCAATAGGT,0.991
17,CAGTCGGCGT,1.06
18,GATTTGAACC,1.02
19,GGTCAATTTA,1.02
20,ACAAGCTGTG,0.945
21,ACTGCAGTCG,1
22,TTTTTGACAT,0.955
23,CCGTGAATCC,3.75
24,TGATTTGGCG,1.06
25,TTGTCATGCT,0.989
26,ACTGCTCCAA,1.05

row,Sequence,switch fluorescence ratio
1,AACAGACAGG,1.05
2,CTGTTATGTC,0.987
3,TTCGTGGCAT,1.01
4,TTGGCGGCTG,1.02
5,GCGGGTATTC,1.02
6,ACATAGGATA,1.04
7,ATATTCCCGG,1.05
8,GCTCTTACTG,0.989
9,GATATTGCCT,1.06
10,AGGCGCTGGC,0.914
11,CCTCGCTGCT,2.44
12,CTTTGGTTAC,1.07
13,TACGAGAACA,1.02
14,AGAAGTTACC,1.13
15,AACCTTAAAT,1.03
16,CTCTATGTAG,1.04
17,CTAAGAGGAG,0.976
18,ATTCTGAAAC,1.07
19,TCTTACTGTG,1.02
20,TGATTTCATA,1.01
21,AATGAGCAGG,1.03
22,AAATCAATGC,1.46
23,ACCCAGCTGT,1.13
24,TGATTAACAT,0.958
25,CGCGGTAAC,2.77
26,AACTTATCGT,0.986

row,Sequence,switch fluorescence ratio
1,AATACCACGA,1.13
2,TAGAATATTA,1.02
3,GACTTCGTTT,1.01
4,TTAGTTAGAG,1
5,AATTGGCGTC,1.01
6,GACAGAGAGG,1
7,TCTCAAAGTG,0.946
8,CTGCGATTC,3.23
9,CCTTTATGCC,1.08
10,GGCGCTTCTG,0.92
11,CTGAGCAGTG,1.04
12,AATATTCTTG,1.01
13,GTTGGCGATT,1.03
14,GGTGGTGGTT,1.03
15,TATCATGAAC,1.06
16,GTTGAGAAT,0.998
17,CGCGCTTGAC,1.43
18,GAGCGGCAGA,0.992
19,ATGTTGAAA,0.961
20,GGTCTCTTGT,0.953
21,CCGCCCAGAA,1.75
22,TATGGGAG,0.944
23,CCAGCTCATA,1.09
24,CCGCGGTTCC,2.58
25,TCTTATCCC,1.03
26,ACCGGGATTA,1.02

row,Sequence,switch fluorescence ratio
1,AACTGTCGAC,0.994
2,TGGCGGGGT,0.958
3,TAGGTCGAGC,1
4,GATGCTCGTA,0.961
5,GGGACTAACA,0.995
6,GACTTTGCAA,6.22
7,TTGCAGGGCG,1.29
8,CACAGGTCGC,1.01
9,AGTTGGAGGT,0.958
10,GCACGGGCTC,0.972
11,TGATGGAGAA,0.988
12,GTTAGTTTT,1.02
13,TCCGGGACGT,1.07
14,AGGTGAAGAA,1
15,GATTTCACTT,0.978
16,ACAGGGGTG,1.18
17,CGGACTCGCT,1.01
18,AGCAGTGCTA,1.11
19,ACTGAGTGG,0.972
20,CTGCTCCTT,0.986
21,CGGAACGGTA,1.01
22,GTTGAGGTTT,0.954
23,GGAAGTACAA,1.25
24,AGTGGAACGG,1
25,ACAGGTGTGG,1.14
26,CTGTTTTCCG,1.02

row,Sequence,switch fluorescence ratio
1,TTTGGAAG,0.988
2,CTGTTGCAGG,0.971
3,TACCCGATGT,0.992
4,TCAAGGCATC,1.06
5,GGACGGGTAC,1.46
6,CCATTGAGGG,1.03
7,AGTTCGGGCC,0.985
8,AGGGATGTCG,0.942
9,CCAATACCGG,0.985
10,TATTATTCCT,1.19
11,GCAAAATGA,0.971
12,AATTTAACTT,1.03
13,ACGCTAGTCC,1.18
14,TGGCACCTGT,1.02
15,GTTTGTAGAA,1.02
16,ATATTACGAT,1.04
17,TAGGCTTCGT,1.05
18,AAAAGTGGCT,0.984
19,GGCGCCTTGT,0.988
20,ACAGCACCTT,1.3
21,TGGGTACTAA,0.993
22,ACCATCATGT,0.988
23,ATGGGAATTA,1.01
24,TTGTTTTTA,0.992
25,AACGTAGGCA,1.05
26,AACTCTGTAT,0.982

row,Sequence,switch fluorescence ratio
1,ACTGGCTTTG,0.995
2,GACAGCACTC,1.79
3,GCAACTGCGG,0.981
4,TGAGACGCGA,1.23
5,CAATCCTTAG,1.02
6,AGAACGTGCT,1.01
7,GGCCGGAAAC,1.2
8,ACGAGGGAAG,0.987
9,AGTAGGCCGG,1.03
10,TACCCAGGAC,1.29
11,GACAAGGTGG,1.03
12,CTATCGAATT,0.957
13,ACTGGTCCGG,1.04
14,CTAGTCTAAG,0.984
15,AGAATTACGG,1.01
16,CTGAAACGCT,1.15
17,CGAGGAACGG,0.992
18,ATATTGGAAC,0.957
19,GATTTCGGAA,0.923
20,CAGGCGTGGG,1.04
21,AAACGTGTGA,1.02
22,ATTGTTGGAC,1.01
23,AGCAAATCTA,1.06
24,TGGATACT,0.96
25,CTGGAGGGCG,1.06
26,GTCCAGTTCA,1.01

row,Sequence,switch fluorescence ratio
1,CTGGTCCGAG,0.995
2,ATACTTCATC,1.12
3,CTATGGCACT,1.02
4,GCCCTTGTA,0.984
5,GCCCCTATGT,1
6,CCTAACACTT,1.02
7,GTTTTTCGAG,1.01
8,AGTGGCAGGC,1
9,TTATCTAGG,0.995
10,GGTTCCTAAT,0.992
11,TAATATATCT,1.01
12,ATCTATCGTT,1.02
13,TTCTATGTTG,1.02
14,ACTACGCCTG,1.26
15,GGGTACACTG,0.971
16,GTGTACCTTA,1.03
17,TTTTGTCCAC,1.04
18,AATTATAAGT,1.01
19,TTTCCGCCCT,1.02
20,ATATCCGCGT,1.27
21,GGTCTTATTC,0.96
22,GATGCGTAGA,1.02
23,GGGCGTGTAC,1.02
24,TTGGTGGTCA,1.04
25,CATAGACGAA,0.97
26,AATTTAACC,1.04

row,Sequence,switch fluorescence ratio
1,TGTTCATGGG,1.01
2,AGTAAGCCTA,1
3,TCGTTAGAAA,1.01
4,GACATGGTGC,1.21
5,ACGGCTCGGA,1.03
6,ACGTAACAGC,1.28
7,ACATAAGATT,1.04
8,GCGGTGCACA,1.05
9,AGATATGTAT,0.958
10,GGAAGGGTGT,1.04
11,AAAAAATCGA,0.999
12,CGCCTCTGT,0.999
13,ATTCTAGGGG,0.937
14,GCGAGGGGCC,1.02
15,GGTTCTCAGA,1.03
16,TTCATAGGGC,0.966
17,AGTGGGTAGT,1.02
18,GGAACCAGCG,1.07
19,TAAGATTACG,1.02
